Paper PMC4336329 (PLoS ONE, 2015)
Among all 310,000 compounds or so, about 2,200 (0.71%) showed an effect of 50% or more. The effect is printed as a negative number. Some of the results follow.

molecular target: human ether-à-go-go-related gene (hERG) potassium channel (human, UniProt Q12809); test: primary screen, population patch clamp on CHO cells stably expressing hERG
Sequence (Q12809 whole entry, looked up): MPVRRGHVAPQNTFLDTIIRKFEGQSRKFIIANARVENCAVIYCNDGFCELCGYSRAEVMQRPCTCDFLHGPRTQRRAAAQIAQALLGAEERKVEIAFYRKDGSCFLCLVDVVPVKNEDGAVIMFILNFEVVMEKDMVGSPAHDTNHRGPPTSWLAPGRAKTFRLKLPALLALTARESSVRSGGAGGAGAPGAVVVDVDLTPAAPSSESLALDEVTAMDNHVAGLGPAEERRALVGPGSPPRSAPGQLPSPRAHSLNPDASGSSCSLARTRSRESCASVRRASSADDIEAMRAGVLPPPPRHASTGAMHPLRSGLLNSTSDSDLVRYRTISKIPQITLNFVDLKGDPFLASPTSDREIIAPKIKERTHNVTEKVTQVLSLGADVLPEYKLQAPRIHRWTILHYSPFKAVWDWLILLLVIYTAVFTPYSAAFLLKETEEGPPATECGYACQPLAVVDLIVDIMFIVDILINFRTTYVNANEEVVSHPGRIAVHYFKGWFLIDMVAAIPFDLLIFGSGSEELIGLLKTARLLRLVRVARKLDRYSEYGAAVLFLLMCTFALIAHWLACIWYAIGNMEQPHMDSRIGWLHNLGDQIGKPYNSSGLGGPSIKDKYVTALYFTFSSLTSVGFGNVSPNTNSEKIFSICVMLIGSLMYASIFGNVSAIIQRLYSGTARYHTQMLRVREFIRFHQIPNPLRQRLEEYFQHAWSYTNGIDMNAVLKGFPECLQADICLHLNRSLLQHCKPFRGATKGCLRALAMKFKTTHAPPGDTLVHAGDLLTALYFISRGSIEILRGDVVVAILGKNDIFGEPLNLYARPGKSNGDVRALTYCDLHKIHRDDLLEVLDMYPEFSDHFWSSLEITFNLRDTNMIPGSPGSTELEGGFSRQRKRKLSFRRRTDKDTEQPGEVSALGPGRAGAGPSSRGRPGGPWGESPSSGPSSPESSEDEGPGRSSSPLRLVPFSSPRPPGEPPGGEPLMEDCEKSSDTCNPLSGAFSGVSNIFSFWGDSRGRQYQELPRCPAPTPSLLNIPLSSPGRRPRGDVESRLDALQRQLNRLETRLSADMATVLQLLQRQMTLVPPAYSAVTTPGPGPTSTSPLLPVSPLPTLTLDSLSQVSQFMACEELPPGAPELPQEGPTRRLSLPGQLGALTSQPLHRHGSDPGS

Structure (SMILES)	hERG current change (%, negative = inhibition) at 1uM
Cc1cc(C)c(C(=O)N2CCCC(CNS(=O)(=O)N(C)C)C2)o1 (stereo not shown)	12.2%
O=C(Nc1cccc([N+](=O)[O-])c1)c1cnccn1	7.17%
CCCOc1cc(C)c(S(=O)(=O)n2ccc(C)n2)cc1C	-0.817%
COC(=O)c1ccccc1NC(=O)CCCn1nc([N+](=O)[O-])cc1C	2.03%
Nc1ccc2oc(-c3cccc4ccccc34)nc2c1	13.6%
COc1ccc(N2CCN(S(=O)(=O)c3c(C)[nH]c(C)c3C(=O)N3CCCC3)CC2)cc1	14.5%
COCCn1c(=NC(=O)CCS(=O)(=O)c2ccccc2)sc2c(OC)ccc(OC)c21	4.94%
CCc1c(O)nc(SCC(=O)Nc2nc3ccccc3s2)n(C2CCCCC2)c1=O	11.8%
CC(=O)N1N=C(c2ccncc2)OC1(Cc1ccccc1)Cc1ccccc1	-1.64%
CCOc1ccc(OCC)c(NC(=O)CN2CCN(c3cccc(C)c3C)CC2)c1.Cl	9.79%
CC1CCN(C(=S)c2cn(Cc3cccc(F)c3)c3ccccc23)CC1	13.2%
COC(=O)c1sc(N)c(C(=O)OC)c1COC(=O)[C@@H](NS(=O)(=O)c1cccc(Cl)c1)C(C)C	1.44%
COC(=O)[C@@]1(Cc2ccc(F)cc2)[C@H]2c3cc(C(=O)N4CCCC4)n(Cc4ccc(C(F)(F)F)nc4)c3C[C@H]2CN1C(=O)c1ccccc1	3.58%
CC(C)(C)c1ccc(OCC(O)CN2CCN(c3ccccn3)CC2)cc1.Cl (stereo not shown)	8.32%
CC(=O)C1=C(C)Nc2ncnn2C1c1ccc(Cl)cc1Cl (stereo not shown)	8.71%
CN(C(=O)CN(c1ccccc1)S(=O)(=O)c1ccc(F)cc1)C1CCS(=O)(=O)C1 (stereo not shown)	3.88%
CSc1ncccc1C(=O)Nc1ccc2c(c1)OCO2	5.57%
CCOn1c(SC(C)C)nc2ccccc2c1=O	16.9%
COc1ccc(CNC(=O)C(OC(=O)c2nsc(Cl)c2Cl)C(C)C)cc1 (stereo not shown)	0.641%
CC(=O)c1ccc(NC(=O)CS(=O)(=O)c2cn(CC(=O)N3CCOCC3)c3ccccc23)cc1	-5.39%
Cc1nc(C(=O)NNC(=O)c2ccc(Cl)cc2)cs1	1.04%
Cc1ccc(-c2nc(CS(=O)(=O)CC(=O)NCCN3CCOCC3)c(C)o2)cc1	8.63%

Structure (SMILES)	hERG current change (%, negative = inhibition) at 1uM
O=C1c2oc3ccc(F)cc3c(=O)c2C(c2ccc(F)cc2)N1CCCN1CCOCC1 (stereo not shown)	-3.74%
CCOc1ccc(NC(=O)c2ccc(F)cc2F)cc1	15.9%
CC(/C=N/NC(=O)Cn1nccc1C)=C\c1ccc(C(C)C)cc1	12.1%
COc1cc2[nH]c(=O)c(C(=O)NCCCN3CCCCC3)c(O)c2cc1OC.Cl	0.0656%
COc1ccc(OC)c(NC(=O)COC(=O)CNC(=O)c2ccc(OC)c(OC)c2)c1	-17%
Cc1ccnc(NS(=O)(=O)c2ccc3ccccc3c2)n1	16%
COc1ccc(CCN2C(=NC(=O)CCC(=O)O)SC3CS(=O)(=O)CC32)cc1OC (stereo not shown)	1.15%
Cc1cc(O)ccc1N/C=C/c1onc(C)c1[N+](=O)[O-]	17.6%
FC(F)(F)c1cc(Oc2ccc(Cl)cc2)ncc1-c1nnc(-c2ccc(Cl)cc2)o1	12.9%
Cc1nc2cc(-c3cccs3)[nH]n2c(=O)c1C	11.5%
COCC(=O)Nc1cccc(Br)c1	8.14%
C=CCOC(=O)C(=O)/C=C/c1csc2ccccc12	17.5%
CCCCC(Br)C(=O)Nc1ccc(S(=O)(=O)Nc2cc(C)nc(C)n2)cc1 (stereo not shown)	13.5%
O=S(=O)(NCc1cn2ccsc2n1)c1cccs1	16.3%
COc1ccc2c(=O)c3c(=O)n(Cc4ccco4)c(C(C)C)nc3oc2c1	7.78%
O=S(=O)(c1cccc(-c2nnc(SCc3ccc(Cl)cc3)o2)c1)N1CCCCC1	7.67%
CCOc1ccc(C=O)cc1CN1CCCCC1.Cl	0.149%
CCC1CN(C(=O)NCc2cccc(OC)c2)c2ccccc2O1 (stereo not shown)	9.43%
Cn1c(NCc2ccco2)nc2c1c(=O)n(Cc1ccc(Cl)cc1Cl)c(=O)n2C	8.58%
O=C1Cc2ccccc2C(c2c(Cl)cccc2Cl)N1 (stereo not shown)	11%
COC(=O)Cn1cc([N+](=O)[O-])nc1C	9.6%
COc1ccc(CCC(C)NCc2ccc(F)cc2)cc1 (stereo not shown)	13.2%

Structure (SMILES)	hERG current change (%, negative = inhibition) at 1uM
CCN=C1S/C(=C\c2cc(Br)ccc2OCC(=O)OCC)C(=O)N1CC	3.38%
COc1ccc(-n2nnnc2SC(C)C(N)=O)cc1 (stereo not shown)	16.9%
CCCN(CCC)CCCNC(=S)Nc1ccc2nc(N3CCN(CC)CC3)cc(C)c2c1	8.71%
NC(=O)C1(N2CCCCC2)CCN(c2nc(-c3ccc(Br)cc3)cs2)CC1	-3.89%
COc1cccc(CCN2CCC(CNS(=O)(=O)c3cc(-c4cc(C)no4)ccc3C)CC2)c1	-20.1%
Cc1ccc(NC(=S)N(CCCN(C)C)Cc2cc3cc4c(cc3[nH]c2=O)OCO4)cc1	-4.16%
COc1ccc(C)cc1NC(=O)CO/N=C(\N)CC(=O)Nc1ccccc1OC	8.58%
Nn1c(SCC(=O)Nc2ccc3c(c2)OCCO3)nnc1-c1cccnc1	7%
COc1ccc(CC(=O)N2CCN(C(=O)c3ccco3)CC2)cc1	8.56%
O=C(O)c1ccc2c(c1)S(=O)(=O)c1cc(Cl)ccc1C2=O	15.4%
O=C(NC(=S)Nc1cccc(C(F)(F)F)c1)c1csnn1	23%
Cc1ccc(-c2nc3c(c(=O)c4ccccc4n3C)c(=O)n2-c2ccc(F)cc2)cc1	8.25%
O=C(CNC(=O)C12CC3CC(CC(C3)C1)C2)N1CCN(S(=O)(=O)/C=C/c2ccccc2)CC1	16%
O=C(/C=C/c1ccccc1)/C=C/c1ccccc1	16.3%
CCN(CC)C(=O)CSc1nnc(CCN)o1.Cl	17.4%
COc1ccc(N(C(=O)c2cccc([N+](=O)[O-])c2)S(=O)(=O)c2cccs2)cc1	10.2%
Cc1cc(NC(=O)c2cc([N+](=O)[O-])cc([N+](=O)[O-])c2C)no1	6.54%
Cc1ccc(CS(=O)(=O)CCC(=O)NCCCN2CCCC2=O)cc1	10.7%
c1ccc2c(c1)CCCN2Cc1nnnn1CC1CCCO1 (stereo not shown)	13.2%
O=C(c1ccco1)N1CCN(C(=O)C2c3ccccc3Oc3ccccc32)CC1	-0.994%
Cc1ccc(Nc2nc(Cl)nc(NC(C)(C)C)n2)cc1	11.9%
O=C(O)C(F)(F)F.O=C1C(Cc2ccccc2)Nc2ncnc(N3CCc4ccccc4C3)c2N1Cc1ccc(Br)cc1 (stereo not shown)	14.7%

Structure (SMILES)	hERG current change (%, negative = inhibition) at 1uM
c1ccc(Cn2nnnc2C(c2ccncc2)N2CCOCC2)cc1 (stereo not shown)	7.52%
COc1ccc(NC(=O)c2cc3c(COC(C)=O)cnc(C)c3oc2=Nc2cccc(C(=O)O)c2)c(OC)c1	8.72%
CCOC(=O)c1ccc(Oc2nc(SC)nc(N(C)C)n2)cc1	7.66%
COc1cc(OC)c(OC)cc1CNC(=O)c1ccc(S(=O)(=O)N2CCCCC2)cc1	12%
C=CCn1c(SCC(=O)N2CCN(c3ccc(F)cc3)CC2)nnc1-c1ccco1	-67%
CN1c2ccccc2C(=O)/C(=C\Nc2ccc(F)cc2F)S1(=O)=O	1.35%
CCCCC1(CC)C(=O)NC(=O)NC1=Nc1ccc(OC)cc1 (stereo not shown)	6.44%
CCc1ccc(/C=c2\s/c(=C\C(=O)C(C)(C)C)[nH]c2=O)cc1	8.54%
CCCn1c(SCC(=O)Nc2nnc(C(C)C)s2)nc2c1c(=O)n(C)c(=O)n2C	12.4%
Nc1ccc(-c2nc3ncccc3o2)c(O)c1	4.89%
O=C1CC(=O)C(n2cncn2)C(c2cccc(Cl)c2)C1 (stereo not shown)	15.8%
COc1ccc2[nH]c(CN3CCC(n4nccc4NC(=O)C4CC4)CC3)c(C)c2c1	-33.1%
Cc1ccccc1OCC(=O)NC(Cc1c[nH]c2ccccc12)C(=O)O (stereo not shown)	14.4%
COc1ccccc1N1CCN(C2CCCN(C(=O)c3ccoc3)C2)CC1 (stereo not shown)	-3.1%
Cc1ccc(OCc2nnc(NC(=O)c3ccco3)s2)c(C)c1	17.8%
O=C1CCS/C(=N\N=C\c2ccc(Cl)cc2Cl)N1	-2.19%
O=C(O)C(=O)O.c1ccc(OCCN2CCOCC2)cc1	14.5%
COc1ccc(CCNc2nc(C)c(C(C)=O)s2)cc1OC	11.7%
COC(=O)Nc1ccc2c(c1)ncn2C1CCCCC1	0.75%
Cn1cc(Br)c(C(=O)NC2CCCCCC2)n1	6.01%
CN(C)S(=O)(=O)N1CCN(c2ccc([N+](=O)[O-])cc2)CC1	-60.5%
O=C(O)c1ccc(-c2nc(-c3ccc(Cl)cc3Cl)cs2)cc1	16.7%
